# Test results as given in PubChem BioAssay (Tox21).
# Inconclusive results, whose numbers are uncertain, are shown with a selection of clear calls. For some assays here: Potencies beside an inconclusive call are fits to weak or partial responses and may not hold up. Activity calls are given as the source filed them. Unless noted, calls come from the whole dose curve; as a rule, active = well fitted curve in the direction sought with a large enough effect in the repeat runs; inconclusive = weak or mixed curves; inactive = no such curve, though single readings can be large; an effect the other way counts as inactive or inconclusive.
# Columns and labels:
# [1] = qHTS assay to identify small molecule antagonists of the estrogen related receptor (ERR) signaling pathway from Tox21 library - cell viability counter screen (AID 1224834); note: nearly all actives have a fitted effect of over 30% in size
# In short: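 Compounds in DMSO were pinned onto ERR cells that had been incubated for 6 h, and the plates were held at 37 C for 17.5 h. CellTiter-Fluor reagent was then added and fluorescence was measured after 30 min.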
# [2] = qHTS assay to identify small molecule antagonists of the estrogen related receptor signaling pathway with the pleiotropic PPARgamma coactivator (PGC) from Tox21 10K library (AID 1224841; call rule not given here; note: potency is the fitted concentration of half-maximal effect; actives are mostly falling curves and most rising ones were filed inactive; nearly all actives have a fitted effect of over 50% in size)
# In short: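 Cells stably carrying the PGC/ERR reporter, seeded at 2,000 per well, received pin-transferred compounds 6 h post-plating. Exposure lasted 18 h at 37 C. Signal: One-Glo luminescence.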
# [3] = qHTS assay to identify small molecule agonists of the estrogen related receptor signaling pathway with the pleiotropic PPARgamma coactivator (PGC) from Tox21 10K library (AID 1224842); note: nearly all actives have a fitted effect of over 15% in size
# In short: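 Luminescence from One-Glo (30 min, room temperature) measured after PGC/ERR cells had 18 h at 37 C with pinned compound (23 nL in DMSO). Cells had been seeded at 2,000 per well and pre-incubated 6 h.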
# [4] = qHTS assay to identify small molecule agonists of the hypoxia (HIF-1) signaling pathway - cell viability counter screen (AID 1224844; calls by dose curve; note: potency is the fitted concentration of half-maximal effect; nearly all actives have a fitted effect of over 50% in size)
# In short: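 Viability counter screen: HRE-bla ME-180 cells plated 5 hrs before compound addition, treated 17 hrs at 37C and 5% CO2, then CellTiter-Glo added after the FRET reporter read; luminescence after 30 min.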
# [5] = qHTS assay to identify small molecule agonists of H2AX - cell viability counter screen (AID 1224847; calls by dose curve;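 note: wild-type CHO-K1 cells; top concentration of the series differs between compounds; nearly all actives have a fitted effect of over 30% in size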)
# In short: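 Cells plated first: CHO-K1, 1000 per well in 10% FBS medium, incubated overnight at 37C. Then 15-point compound titration added (final DMSO 0.76%) for 3 hr. Finally CellTiter-Glo added and luminescence read.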
# [6] = qHTS assay to identify small molecule antagonists of the estrogen related receptor (ERR) signaling pathway from Tox21 library (AID 1224848); note: potency is the fitted concentration of half-maximal effect; nearly all actives have a fitted effect of over 50% in size
# In short: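 Luciferase luminescence (ONE-Glo, 30 min room temperature) was the read-out. Cells of the NTP-supplied ERR line, 2,000 per well, were given 6 h at 37 C before compound addition in DMSO and 18 h exposure at 37 C.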
# [7] = qHTS RealTime-Glo MT Cell Viability Assay in HEK293 cells - 32 hour (AID 1224868); note: potency is the fitted concentration of half-maximal effect; nearly all actives have a fitted effect of over 50% in size
# In short: (§1)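 Tox21 10K qHTS, HEK293, 600 cells/well, RealTime-Glo reagent co-dispensed with cells; 5 h preincubation, compound by pintool, 37 C, luminescence at 0–40 h.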
# [8] = A CellTox Green Cytotoxicity Assay to monitor cytotoxicity in HEK293 cells - 40 hour (AID 1224871); note: potency is the fitted concentration of half-maximal effect; nearly all actives have a fitted effect of over 45% in size
# In short: (§2)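 Dead-cell fluorescence measured kinetically: asymmetric cyanine dye, HEK293, 600 cells/well, 5 h settle, 23 nL cpd/DMSO, 37 C, reads 0–40 h every 8 h.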
# [9] = A CellTox Green Cytotoxicity Assay to monitor cytotoxicity in HepG2 cells - 40 hour (AID 1224879); note: potency is the fitted concentration of half-maximal effect; nearly all actives have a fitted effect of over 40% in size
# In short: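 First, HepG2 cells (600/well) mixed with reagent were plated; second, after 5 h at 37 C they received compounds via pintool; third, fluorescence was measured at 0 h through 40 h at 8 h intervals.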
# [10] = A CellTox Green Cytotoxicity Assay to monitor cytotoxicity in HEK293 cells - 8 hour (AID 1224884); note: nearly all actives have a fitted effect of over 35% in size
# In short: as §2
# [11] = qHTS RealTime-Glo MT Cell Viability Assay in HEK293 cells - 24 hour (AID 1224886)
# In short: as §1
# [12] = target: Androgen receptor (Homo sapiens) (UniProt P10275); test: qHTS assay to identify small molecule antagonists of the androgen receptor (AR) signaling pathway using the MDA cell line in the presence of 0.5 nM R1881 (AID 1259243)
# In short: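 Antagonist mode quantitative HTS in MDA-kb2 MMTV-luciferase cells, agonist R1881 at 0.5 nM final, 16 hr exposure at 37C and 0% CO2, luminescent detection.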
# [13] = qHTS assay to identify small molecule HDAC inhibitors (AID 1259364);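 note: wild-type HCT-116 cells with endogenous class I/II HDAC activity; top concentration of the series differs between compounds; nearly all actives have a fitted effect of over 45% in size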
# In short: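 Quantitative high-throughput format: overnight-seeded HCT-116 cells got compounds for 2 hr at 37C; HDAC-Glo I/II reagent added, 30 min RT, luminescence measured.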
# [14] = qHTS assay to identify small molecule antagonists of the sonic hedgehog signaling (Shh) pathway (AID 1259369; calls by dose curve; note: potency is the fitted concentration of half-maximal effect; nearly all actives have a fitted effect of over 45% in size)
# In short: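 Stable Gli1-Luc reporter NIH/3T3 clone; quantitative HTS in stimulated mode with conditioned medium. Luminescence measured after 24hr compound treatment at 37 C.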
# [15] = target: Estrogen receptor beta (Homo sapiens) (UniProt Q92731); test: qHTS assay to identify small molecule antagonists of the estrogen receptor beta (ER-beta) signaling pathway (AID 1259378; active = well fitted inhibition curve with a large enough effect in the signal ratio in the repeat runs, not every such curve was filed as active; inconclusive = weak or mixed curves, or effect the other way; inactive = no such curve, though single readings can be large or run the other way; the % refers to the signal ratio); conditions: ER-beta-UAS-bla HEK293T, beta-lactamase FRET ratio, 16 h; series mostly up to 92.4 µM
# In short: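 Antagonist mode: compounds added to beta-lactamase reporter HEK293T ER-beta-UAS cells stimulated with E2 (1nM final), 16 hr at 37C. LiveBLAzer B/G FRET substrate, 2 hours room temperature, fluorescence read-out.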
# [16] = target: Progesterone receptor (Homo sapiens) (UniProt P06401); test: qHTS assay to identify small molecule antagonists of the progesterone receptor (PR) signaling pathway (AID 1346795; active = well fitted inhibition curve with a large enough effect in the signal ratio in the repeat runs, not every such curve was filed as active; inconclusive = weak or mixed curves; the % refers to the signal ratio); conditions: PR-UAS-bla HEK293T, beta-lactamase FRET ratio, 16 h; series mostly up to 92.4 µM
# In short: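 Read-out is fluorescence from the LiveBLAzer B/G FRET substrate, cleaved by a UAS-controlled beta-lactamase in PR-UAS-bla HEK293T cells after 16 hr exposure to compound plus 1 nM promegestone (final), followed by 2 hr at room temperature.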
# [17] = qHTS assay to identify small molecule agonists of the progesterone receptor (PR) signaling pathway - cell viability counter screen (AID 1346799; calls by dose curve; note: potency is the fitted concentration of half-maximal effect; nearly all actives have a fitted effect of over 45% in size)
# In short: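 Luminescence from CellTiter-Glo, added after the beta-lactamase FRET read in the same wells, gave cytotoxicity in PR-UAS-bla HEK293T cells treated with compounds for 16 hr at 37C.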
# [18] = target: Nuclear receptor subfamily 1 group I member 2 (Homo sapiens) (UniProt O75469); test: Human pregnane X receptor (PXR) small molecule agonists, qHTS assay (AID 1346982); note: potency is the fitted concentration of half-maximal effect; nearly all actives have a fitted effect of over 35% in size
# In short: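 Reporter HepG2 cells expressing PXR-Luc are cultured in charcoal-stripped FBS (5%), treated with compounds for 24 hr at 37 C, and assayed by ONE-Glo luminescence after 30 min at room temperature.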
# [19] = target: Cytochrome P450 2C19 (Homo sapiens) (UniProt P33261); test: Cytochrome P450 Family 2 Subfamily C Member 19 (CYP2C19) small molecule antagonists: luciferase reporter qHTS assay (AID 1671197); note: potency is the fitted concentration of half-maximal effect; nearly all actives have a fitted effect of over 65% in size
# In short: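 Inhibition of CYP2C19 was scored from loss of luminescence in a P450-Glo proluciferin substrate assay, NADPH-started and run 1 h at 37C, with ketoconazole as positive control.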
# [20] = target: Cytochrome P450 3A4 (Homo sapiens) (UniProt P08684); test: Cytochrome P450 Family 3 Subfamily A Member 4 (CYP3A4) small molecule antagonists: luciferase reporter qHTS assay (AID 1671201)
# In short: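 Compounds in DMSO were pin-transferred onto CYP3A4 enzyme-substrate mix and held 10 min at room temperature. NADPH regenerating solution started the reaction for 1 h; luciferin detection reagent stopped it, and luminescence was read after 20 min.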
# Tags give direction and shape of the fitted curve.
# UniProt P06401, sequence (P06401 whole entry, looked up): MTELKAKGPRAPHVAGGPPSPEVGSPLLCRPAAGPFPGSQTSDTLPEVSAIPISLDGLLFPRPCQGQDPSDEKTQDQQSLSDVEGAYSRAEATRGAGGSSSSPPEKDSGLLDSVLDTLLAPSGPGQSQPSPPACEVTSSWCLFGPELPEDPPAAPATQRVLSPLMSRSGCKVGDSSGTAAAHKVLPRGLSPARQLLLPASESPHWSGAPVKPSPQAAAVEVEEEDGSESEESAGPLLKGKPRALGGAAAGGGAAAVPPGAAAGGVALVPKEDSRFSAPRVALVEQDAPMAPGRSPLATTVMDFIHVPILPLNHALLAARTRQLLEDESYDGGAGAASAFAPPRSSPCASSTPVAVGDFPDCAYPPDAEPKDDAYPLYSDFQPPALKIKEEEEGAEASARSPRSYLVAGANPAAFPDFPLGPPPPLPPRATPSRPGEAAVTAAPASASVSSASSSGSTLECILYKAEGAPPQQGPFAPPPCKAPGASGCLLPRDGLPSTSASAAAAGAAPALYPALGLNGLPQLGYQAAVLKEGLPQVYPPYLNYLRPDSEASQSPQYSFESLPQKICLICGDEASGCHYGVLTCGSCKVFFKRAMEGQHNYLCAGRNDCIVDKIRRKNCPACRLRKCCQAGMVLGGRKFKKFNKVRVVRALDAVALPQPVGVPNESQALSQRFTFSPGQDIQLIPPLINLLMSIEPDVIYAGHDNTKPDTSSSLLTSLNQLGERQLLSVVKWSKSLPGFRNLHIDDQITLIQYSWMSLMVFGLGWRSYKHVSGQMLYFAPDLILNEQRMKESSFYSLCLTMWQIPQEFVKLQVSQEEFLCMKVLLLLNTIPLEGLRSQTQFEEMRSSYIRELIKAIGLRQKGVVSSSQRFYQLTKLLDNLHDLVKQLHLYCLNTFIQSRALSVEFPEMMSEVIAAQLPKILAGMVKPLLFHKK
# UniProt O75469, sequence (O75469 whole entry, looked up): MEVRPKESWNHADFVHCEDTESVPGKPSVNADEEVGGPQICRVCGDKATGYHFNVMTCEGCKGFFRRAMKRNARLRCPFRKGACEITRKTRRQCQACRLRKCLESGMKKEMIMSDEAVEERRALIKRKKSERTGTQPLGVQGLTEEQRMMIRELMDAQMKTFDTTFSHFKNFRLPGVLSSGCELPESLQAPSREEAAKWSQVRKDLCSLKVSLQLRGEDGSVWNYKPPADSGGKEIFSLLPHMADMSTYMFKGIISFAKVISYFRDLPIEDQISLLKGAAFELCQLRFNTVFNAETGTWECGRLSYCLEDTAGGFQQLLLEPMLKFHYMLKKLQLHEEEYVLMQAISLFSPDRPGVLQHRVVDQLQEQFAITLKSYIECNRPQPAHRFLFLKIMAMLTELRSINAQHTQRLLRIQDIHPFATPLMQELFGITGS
# UniProt P08684, sequence (P08684 whole entry, looked up): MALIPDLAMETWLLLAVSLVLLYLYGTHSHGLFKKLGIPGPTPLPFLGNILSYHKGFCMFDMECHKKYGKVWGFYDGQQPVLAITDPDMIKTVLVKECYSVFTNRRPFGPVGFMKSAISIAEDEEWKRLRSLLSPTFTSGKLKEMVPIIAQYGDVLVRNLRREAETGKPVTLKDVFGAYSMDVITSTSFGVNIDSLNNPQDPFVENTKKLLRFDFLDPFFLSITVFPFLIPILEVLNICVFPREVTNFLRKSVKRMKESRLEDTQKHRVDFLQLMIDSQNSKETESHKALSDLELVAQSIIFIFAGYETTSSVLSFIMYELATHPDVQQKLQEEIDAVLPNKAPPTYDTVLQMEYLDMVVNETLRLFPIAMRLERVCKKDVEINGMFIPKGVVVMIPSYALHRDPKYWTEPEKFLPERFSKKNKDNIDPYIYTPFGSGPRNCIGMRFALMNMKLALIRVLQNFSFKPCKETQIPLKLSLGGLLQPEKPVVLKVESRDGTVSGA
# UniProt P33261, sequence (P33261 whole entry, looked up): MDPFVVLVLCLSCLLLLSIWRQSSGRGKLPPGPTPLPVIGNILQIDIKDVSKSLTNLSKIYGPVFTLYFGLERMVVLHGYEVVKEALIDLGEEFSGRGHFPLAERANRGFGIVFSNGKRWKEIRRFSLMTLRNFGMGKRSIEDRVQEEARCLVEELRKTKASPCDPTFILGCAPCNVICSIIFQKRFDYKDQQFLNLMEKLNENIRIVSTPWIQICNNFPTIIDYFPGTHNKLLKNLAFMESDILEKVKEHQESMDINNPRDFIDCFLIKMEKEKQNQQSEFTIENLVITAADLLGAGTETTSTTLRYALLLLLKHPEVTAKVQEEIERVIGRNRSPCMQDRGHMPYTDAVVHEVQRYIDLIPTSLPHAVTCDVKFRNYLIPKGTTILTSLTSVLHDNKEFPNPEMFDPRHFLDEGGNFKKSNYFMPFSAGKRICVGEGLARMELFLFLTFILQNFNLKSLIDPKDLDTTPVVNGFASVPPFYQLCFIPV
# UniProt Q92731, sequence (Q92731 whole entry, looked up): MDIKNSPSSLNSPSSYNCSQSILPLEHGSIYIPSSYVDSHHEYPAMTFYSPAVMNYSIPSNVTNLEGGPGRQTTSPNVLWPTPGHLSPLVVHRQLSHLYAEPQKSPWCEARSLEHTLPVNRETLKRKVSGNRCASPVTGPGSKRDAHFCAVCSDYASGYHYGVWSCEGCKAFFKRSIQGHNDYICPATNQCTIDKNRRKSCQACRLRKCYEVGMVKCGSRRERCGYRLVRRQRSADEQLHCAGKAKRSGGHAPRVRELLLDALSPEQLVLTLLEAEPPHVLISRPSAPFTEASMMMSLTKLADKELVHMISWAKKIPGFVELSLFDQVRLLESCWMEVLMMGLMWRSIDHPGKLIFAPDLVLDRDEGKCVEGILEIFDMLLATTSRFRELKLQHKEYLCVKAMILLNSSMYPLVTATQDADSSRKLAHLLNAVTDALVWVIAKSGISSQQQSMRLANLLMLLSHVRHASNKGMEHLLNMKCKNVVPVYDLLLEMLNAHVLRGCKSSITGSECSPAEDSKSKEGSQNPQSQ
# UniProt P10275, sequence (P10275 whole entry, looked up): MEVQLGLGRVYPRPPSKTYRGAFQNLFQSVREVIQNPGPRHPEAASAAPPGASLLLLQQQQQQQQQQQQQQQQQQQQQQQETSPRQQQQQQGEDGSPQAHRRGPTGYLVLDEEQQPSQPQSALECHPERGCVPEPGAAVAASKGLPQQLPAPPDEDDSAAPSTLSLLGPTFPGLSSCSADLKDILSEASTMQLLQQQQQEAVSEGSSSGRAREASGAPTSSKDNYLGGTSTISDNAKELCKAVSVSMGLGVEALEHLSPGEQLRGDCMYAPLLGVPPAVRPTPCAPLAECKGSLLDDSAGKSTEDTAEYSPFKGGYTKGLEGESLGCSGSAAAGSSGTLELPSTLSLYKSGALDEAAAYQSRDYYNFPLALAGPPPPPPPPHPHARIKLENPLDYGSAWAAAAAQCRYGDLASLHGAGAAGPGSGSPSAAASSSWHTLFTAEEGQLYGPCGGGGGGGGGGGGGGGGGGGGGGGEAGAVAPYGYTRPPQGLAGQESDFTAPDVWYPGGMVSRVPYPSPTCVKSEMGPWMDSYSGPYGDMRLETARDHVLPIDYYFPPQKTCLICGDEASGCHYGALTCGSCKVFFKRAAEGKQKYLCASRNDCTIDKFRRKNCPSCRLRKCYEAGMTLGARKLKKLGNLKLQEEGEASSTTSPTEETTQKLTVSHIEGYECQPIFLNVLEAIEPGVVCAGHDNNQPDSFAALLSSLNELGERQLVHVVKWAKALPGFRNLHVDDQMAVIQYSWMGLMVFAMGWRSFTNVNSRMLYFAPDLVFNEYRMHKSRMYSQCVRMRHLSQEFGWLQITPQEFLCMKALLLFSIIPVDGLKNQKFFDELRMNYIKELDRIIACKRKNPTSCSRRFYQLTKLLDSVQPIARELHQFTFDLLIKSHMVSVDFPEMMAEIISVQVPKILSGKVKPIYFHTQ
smiles,measurement,setting,value
C/C=C/C(=O)C1=C(C)CCCC1(C)C,Potency,[1],inactive
same,Potency,[2],"inconclusive: 109 µM [falling, partial curve, poor fit]"
same,Potency,[3],inactive
same,Potency,[4],"inconclusive: 21.9 µM [rising, partial curve]"
same,Potency,[5],inactive
same,Potency,[6],"inconclusive: 0.0015 µM [inhibitor, full curve, poor fit]"
same,Potency,[7],"inconclusive: 61.6 µM [rising, partial curve, poor fit]"
same,Potency,[8],"inconclusive: 54.9 µM [activator, partial curve, poor fit]"
same,Potency,[9],"inconclusive: 61.6 µM [activator, partial curve, poor fit]"
same,Potency,[10],inactive
same,Potency,[11],"inconclusive: 54.9 µM [rising, partial curve, poor fit]"
same,Potency,[12],"inconclusive: 68.6 µM [inhibitor, single point]"
same,Potency,[13],inactive
same,Potency,[14],"inconclusive: 68.6 µM [inhibitor, single point]"
same,Potency,[15],inactive
same,Potency,[16],inactive
same,Potency,[17],"inconclusive: 27.3 µM [cytotoxic, single point]"
same,Potency,[18],"inconclusive: 54.5 µM [activator, partial curve]"
same,Potency,[19],active: 79.6 µM
same,Potency,[20],"inconclusive: 39.9 µM [inhibitor, partial curve]"
